# The inconclusive results got no clear call from the source; some entries with a clear call stand among them for comparison. For part of these data: Potencies of inconclusive entries are left out as doubtful fits. For part of these data: A note “side channel” means that the fit belongs to a control or component signal, not to the main read-out. Active and inactive are the calls of the source. Unless noted, calls come from the whole dose curve; as a rule, active = well fitted curve in the direction sought with a large enough effect; inconclusive = small, poorly fitted or top-dose-only effect, or another doubt; inactive = no such curve, though single readings can be large; an effect the other way counts as inactive or inconclusive.
# Legend:
# [1] = target: Glutaminase kidney isoform, mitochondrial (Homo sapiens) (UniProt O94925); assay: qHTS for Inhibitors of Glutaminase (GLS): LOPAC Validation (AID 624146); note: nearly all actives have a fitted effect of over 60% in size
# Summary of the method: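 Two-point fluorescence kinetic (t0, 30 min RT) for hKGA; glutamate detected via glutamate oxidase–HRP–Amplex Red. Substrate: 1 mM L-glutamine solution; buffer 45 mM KH2PO4, pH 8.2.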
# [2] = target: Tyrosine-protein phosphatase non-receptor type substrate 1 (Homo sapiens) + Leukocyte surface antigen CD47 (Homo sapiens) (UniProt P78324+Q08722); assay: CD47-SIRPalpha protein protein interaction - HTRF assay qHTS validation (AID 1347058; active = well fitted curve in the direction sought with a large enough effect in the signal ratio, not every such curve was filed as active; inconclusive = small, poorly fitted or top-dose-only effect, or effect the other way, or a change in a side signal; inactive = no such curve, though single readings can be large or run the other way; the % refers to the signal ratio)
# Summary of the method: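 Soluble extracellular domains (6His-CD47, Avi-tag-biotinylated SIRPalpha) in PBS pH 7.4 with 0.05% IGEPAL CA-630. Compounds were preincubated 30 min at RT with CD47 and anti-His-Eu, then SIRPalpha and SAV-XL665 were added. TR-FRET 665/615 ratio.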
# [3] = qHTS of pediatric cancer cell lines to identify multiple opportunities for drug repurposing: Confirmatory screen for BT-12 cells (AID 1347112); note: nearly all actives have a fitted effect of over 55% in size
# Summary of the method: (§1)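 Cells (500-1,000/well) in growth media were settled 5 h at 37 degrees C, then given compounds for 48 h. Viability was read as CellTiter-Glo luminescence. Primary runs used MIPE at 11 points (0.78 nM-46 µM) and NPC at 8 points (0.59 nM-46 µM); follow-ups used 11 points.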
# [4] = qHTS of pediatric cancer cell lines to identify multiple opportunities for drug repurposing: Confirmatory screen for NB-EBc1 cells (AID 1347115);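 note: cells exposed to compound for 48 h before the viability read; nearly all actives have a fitted effect of over 45% in size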
# Summary of the method: as §1
# [5] = qHTS of pediatric cancer cell lines to identify multiple opportunities for drug repurposing: Confirmatory screen for SJ-GBM2 cells (AID 1347116); note: nearly all actives have a fitted effect of over 60% in size
# Summary of the method: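 Viability measured as metabolically active cells via CellTiter-Glo luminescence following 48 hours of compound exposure, 11-point dilutions in confirmatory testing. 500-1,000 cells/well plated 5 hours before dosing; controls were DMSO and 2.3 µM bortezomib.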
# [6] = qHTS of pediatric cancer cell lines to identify multiple opportunities for drug repurposing: Confirmatory screen for BT-37 cells (AID 1347117); note: nearly all actives have a fitted effect of over 55% in size
# Summary of the method: as §1
# [7] = qHTS of pediatric cancer cell lines to identify multiple opportunities for drug repurposing: Confirmatory screen for control Hh wild type fibroblast cells (AID 1347121); note: nearly all actives have a fitted effect of over 70% in size
# Summary of the method: as §1
# [8] = qHTS of pediatric cancer cell lines to identify multiple opportunities for drug repurposing: Confirmatory screen for RD cells (AID 1347124); details: RD rhabdomyosarcoma cell viability; activity change, negative = cytotoxic: at 45.9 µM (top of the series) unless noted;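 note: cells exposed to compound for 48 h before viability readout; nearly all actives have a fitted effect of over 65% in size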
# Summary of the method: as §1
# [9] = qHTS of pediatric cancer cell lines to identify multiple opportunities for drug repurposing: Confirmatory screen for Rh18 cells (AID 1347125); note: nearly all actives have a fitted effect of over 55% in size
# Summary of the method: as §1
# [10] = qHTS of pediatric cancer cell lines to identify multiple opportunities for drug repurposing: Confirmatory screen for Rh30 cells (AID 1347126); details: Rh30 rhabdomyosarcoma cell viability; activity change, negative = cytotoxic: at 45.9 µM (top of the series); note: nearly all actives have a fitted effect of over 55% in size
# Summary of the method: as §1
# [11] = qHTS of pediatric cancer cell lines to identify multiple opportunities for drug repurposing: Confirmatory screen for Saos-2 cells (AID 1347127); note: nearly all actives have a fitted effect of over 60% in size
# Summary of the method: as §1
# [12] = Quantitative High-Throughput drug screen in 47 multiple myeloma cell lines against the NCATS MIPE library collection: Delta47_JCRB cell viability assay (AID 1918925; note: nearly all actives have a fitted effect of over 45% in size)
# Summary of the method: (§2)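 Primary qHTS used for cherry-picking: cells at 500/well, library compounds for 48 h (37C, 5% CO2), luminescent ATP assay.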
# [13] = Quantitative High-Throughput drug screen in 47 multiple myeloma cell lines against the NCATS MIPE library collection: Karpas417_ECACC cell viability assay (AID 1918961); details: Karpas417 myeloma viability, CellTiter-Glo ATP luminescence, 48 h; viability (% of DMSO): at 45.8 µM (top of the series)
# Summary of the method: (§3)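 Relative luminescence from CellTiter-Glo served as the viability signal, referenced to DMSO-treated (100%) and cell-free medium (0%) controls. Treatment lasted 48 hours at 37C with 500 cells per well.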
# [14] = Quantitative High-Throughput drug screen in 47 multiple myeloma cell lines against the NCATS MIPE library collection: KMS12BM_JCRB cell viability assay (AID 1918971); note: nearly all actives have a fitted effect of over 35% in size
# Summary of the method: as §3
# [15] = Quantitative High-Throughput drug screen in 47 multiple myeloma cell lines against the NCATS MIPE library collection: KMS21BM_JCRB cell viability assay (AID 1918974); details: ATP luminescence, 48 h; viability: at 45.8 µM (top of the series)
# Summary of the method: as §2
# [16] = Quantitative High-Throughput drug screen in 47 multiple myeloma cell lines against the NCATS MIPE library collection: NCIH929_DSMZ cell viability assay (AID 1918978); note: nearly all actives have a fitted effect of over 35% in size
# Summary of the method: (§4)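 Readout: median RLU from CellTiter-Glo after 5 min at room temperature. Preceding step was 48 h drug treatment of 500 cells/well at 37 °C, 5% CO2, with DMSO-only and media-only control wells.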
# [17] = Quantitative High-Throughput drug screen in 47 multiple myeloma cell lines against the NCATS MIPE library collection: OCIMY1_PLB cell viability assay (AID 1918979); note: nearly all actives have a fitted effect of over 35% in size
# Summary of the method: as §4
# [18] = Quantitative High-Throughput drug screen in 47 multiple myeloma cell lines against the NCATS MIPE library collection: LP1_DSMZ cell viability assay (AID 1918982); note: nearly all actives have a fitted effect of over 35% in size
# Summary of the method: as §4
# [19] = Quantitative High-Throughput drug screen in 47 multiple myeloma cell lines against the NCATS MIPE library collection: OCIMY7_PLB cell viability assay (AID 1918987); details: OCI-MY7 myeloma viability, CellTiter-Glo ATP, 48 h; viability (% of DMSO): at 45.8 µM (top of the series); note: nearly all actives have a fitted effect of over 65% in size
# Summary of the method: as §4
# [20] = Quantitative High-Throughput drug screen in 47 multiple myeloma cell lines against the NCATS MIPE library collection: VP6_DJ cell viability assay (AID 1919867); details: ATP luminescence, 48 h; viability (% of DMSO): at 45.8 µM (top of the series); note: nearly all actives have a fitted effect of over 40% in size
# Summary of the method: as §4
# Potency is the fitted concentration of half-maximal effect; tags give direction and shape of the fitted curve.
# UniProt P78324, sequence (P78324 whole entry, looked up, the tested form may be a part): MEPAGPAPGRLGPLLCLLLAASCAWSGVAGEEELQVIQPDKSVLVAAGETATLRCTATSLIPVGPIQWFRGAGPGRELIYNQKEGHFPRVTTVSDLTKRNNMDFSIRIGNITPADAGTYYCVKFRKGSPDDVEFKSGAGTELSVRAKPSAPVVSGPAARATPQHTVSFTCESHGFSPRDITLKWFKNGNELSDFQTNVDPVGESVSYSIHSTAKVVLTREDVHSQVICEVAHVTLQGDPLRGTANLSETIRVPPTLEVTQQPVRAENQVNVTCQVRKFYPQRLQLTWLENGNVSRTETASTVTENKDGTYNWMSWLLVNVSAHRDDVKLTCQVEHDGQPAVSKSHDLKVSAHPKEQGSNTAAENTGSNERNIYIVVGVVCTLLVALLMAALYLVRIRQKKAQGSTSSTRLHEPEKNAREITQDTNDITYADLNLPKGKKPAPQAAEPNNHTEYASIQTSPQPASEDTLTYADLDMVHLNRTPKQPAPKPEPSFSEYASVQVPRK
# UniProt P78324, sequence (Q08722 whole entry, looked up, the tested form may be a part): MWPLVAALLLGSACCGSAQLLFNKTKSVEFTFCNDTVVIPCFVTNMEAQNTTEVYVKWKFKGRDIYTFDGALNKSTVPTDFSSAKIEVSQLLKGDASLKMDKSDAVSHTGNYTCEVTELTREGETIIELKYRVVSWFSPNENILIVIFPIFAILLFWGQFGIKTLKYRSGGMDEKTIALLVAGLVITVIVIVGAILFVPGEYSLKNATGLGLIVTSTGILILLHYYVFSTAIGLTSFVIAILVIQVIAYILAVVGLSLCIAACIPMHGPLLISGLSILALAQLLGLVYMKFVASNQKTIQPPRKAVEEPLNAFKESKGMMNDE
# UniProt O94925, sequence (O94925 whole entry, looked up, canonical isoform): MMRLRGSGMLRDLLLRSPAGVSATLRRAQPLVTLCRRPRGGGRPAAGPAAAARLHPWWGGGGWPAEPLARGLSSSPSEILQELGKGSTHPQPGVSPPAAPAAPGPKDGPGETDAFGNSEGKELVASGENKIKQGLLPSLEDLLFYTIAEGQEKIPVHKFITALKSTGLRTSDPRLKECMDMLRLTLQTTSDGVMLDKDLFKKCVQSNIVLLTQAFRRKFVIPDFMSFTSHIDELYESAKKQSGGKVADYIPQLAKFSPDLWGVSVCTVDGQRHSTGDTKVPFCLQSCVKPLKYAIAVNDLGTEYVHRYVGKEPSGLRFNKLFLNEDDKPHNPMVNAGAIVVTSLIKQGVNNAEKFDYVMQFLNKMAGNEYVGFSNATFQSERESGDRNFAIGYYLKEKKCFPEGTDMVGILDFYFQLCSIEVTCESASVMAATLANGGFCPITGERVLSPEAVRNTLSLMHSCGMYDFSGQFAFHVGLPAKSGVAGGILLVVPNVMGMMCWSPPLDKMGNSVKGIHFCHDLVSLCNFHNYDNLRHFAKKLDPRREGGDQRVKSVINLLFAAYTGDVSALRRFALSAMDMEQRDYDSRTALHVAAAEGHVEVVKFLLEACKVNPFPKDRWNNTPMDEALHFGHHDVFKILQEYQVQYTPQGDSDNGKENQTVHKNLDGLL
smiles,measurement,setting,value
CC(C)(C)NCC(O)c1cc(O)cc(O)c1 (stereo not given),Potency,[1],"inconclusive [inhibitor, partial curve]"
same,Potency,[2],"inconclusive [side channel, falling, single point]"
O=C(CCCCCCC(=O)Nc1ccccc1)NO,Potency,[3],"inconclusive [cytotoxic, single point]"
same,Potency,[4],"inconclusive [cytotoxic, single point]"
same,Potency,[5],"inconclusive [cytotoxic, single point]"
same,Potency,[6],"inconclusive [cytotoxic, single point]"
same,Potency,[7],inactive
same,Potency,[8],"inconclusive [cytotoxic, single point]"
same,Potency,[9],"inconclusive [cytotoxic, single point]"
same,Potency,[10],"inconclusive [cytotoxic, single point]"
same,Potency,[11],"inconclusive [cytotoxic, single point]"
same,Potency,[12],active: 1.32 µM
same,Potency,[13],active: 1.05 µM
same,Potency,[14],active: 2.35 µM
same,Potency,[15],"inconclusive [cytotoxic, full curve, poor fit]"
same,Potency,[16],active: 2.64 µM
same,Potency,[17],active: 5.9 µM
same,Potency,[18],"inconclusive [cytotoxic, full curve]"
same,Potency,[19],active: 2.35 µM
same,Potency,[20],active: 0.833 µM
CC(C)Cn1cnc2c(N)nc3ccccc3c21,Potency,[12],"inconclusive [cytotoxic, full curve, poor fit]"
same,Potency,[15],"inconclusive [rising, partial curve, poor fit]"
same,Potency,[16],"inconclusive [cytotoxic, single point]"
same,Potency,[19],"inconclusive [cytotoxic, partial curve, poor fit]"
same,Potency,[20],inactive
O=c1cc[nH]c(=S)[nH]1,Potency,[5],inactive
same,Potency,[7],"inconclusive [rising, full curve, poor fit]"
same,Potency,[8],inactive
same,Potency,[9],inactive
same,Potency,[10],inactive
same,Potency,[11],inactive
CC1=C(C)C(=O)C(CCCCC#CCCCC#CCO)=C(C)C1=O,Potency,[2],"inconclusive [side channel, falling, partial curve]"
CCCCCCCC/C=C\CCCCCCCC(=O)NCc1ccc(O)c(OC)c1,Potency,[1],"inconclusive [inhibitor, full curve, poor fit]"
COC(=O)[C@@H](N)Cc1ccc(O)c(O)c1,Potency,[1],"inconclusive [inhibitor, full curve]"
CCc1cc2cc(OC)c(OC)cc2c(Cc2ccccc2)n1,Potency,[3],inactive
same,Potency,[4],inactive
same,Potency,[5],inactive
same,Potency,[6],inactive
same,Potency,[9],inactive
O=C(NCc1ccccc1)[C@H](Cc1ccccc1)NC(=O)[C@@H]1O[C@@H]1C(=O)NCCc1ccc(O)cc1,Potency,[4],"inconclusive [cytotoxic, full curve, poor fit]"
same,Potency,[6],"inconclusive [cytotoxic, full curve, poor fit]"
same,Potency,[10],inactive
same,Potency,[11],inactive
same,Potency,[12],"inconclusive [cytotoxic, full curve, poor fit]"
same,Potency,[13],"inconclusive [cytotoxic, full curve, poor fit]"
same,Potency,[14],"inconclusive [cytotoxic, partial curve, poor fit]"
same,Potency,[17],"inconclusive [cytotoxic, full curve, poor fit]"
same,Potency,[18],"inconclusive [cytotoxic, full curve, poor fit]"
same,Potency,[19],inactive
same,Potency,[20],inactive
COC(=O)C=CC(=O)OC,Potency,[3],"inconclusive [cytotoxic, partial curve, poor fit]"
same,Potency,[7],inactive
same,Potency,[8],"inconclusive [cytotoxic, full curve]"
same,Potency,[13],active: 4.18 µM
same,Potency,[14],inactive
same,Potency,[15],"inconclusive [rising, full curve, poor fit]"
same,Potency,[16],active: 0.264 µM
same,Potency,[17],"inconclusive [cytotoxic, single point]"
same,Potency,[18],inactive
CCN(CC)CCNC(=O)c1ccc(NC(C)=O)cc1,Potency,[2],inactive
